In all, about 39,000 compounds went through this assay and about 220 (0.56%) showed activity. The list shows a part of the results.
test system: Escherichia coli K-12 BW25113; assay: relative growth (OD600 normalised to plate interquartile mean) (fraction); higher = less growth inhibition, active = 0.2 or less; settings: 50 µM; LB; incubation time: overnight (16-24 h)
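Also: static incubation at 37 °C against the wild-type strain, values averaged over two biological replicates.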

| Compound | relative growth |
| --- | --- |
| Cc1cccc2[nH]c(CCN)nc12 | inactive: 0.986 |
| CC1(C)NN1CCCN1NC1(C)C (configuration not stated) | inactive: 1.01 |
| N#C[C@@]12[C@H]3CC=C[C@@H]1N2CC3 (some centres not stated) | inactive: 1.01 |
| CC[C@@H]1/C=C/C=C/C[C@H](C)[C@@H](O)[C@](C)(O)C(=O)[C@H](C)[C@@H](O)[C@H](C)C(=O)[C@H](C)[C@@H](O)[C@H](C)/C=C/C(=O)O[C@H]2[C@@H](C)[C@@H](CC1)O[C@@]1(CC[C@@H](C)[C@@H](C[C@H](C)O)O1)[C@@H]2C | inactive: 1.03 |
| CC(=O)N1CC[N+](C)(C)CC1 | inactive: 1.02 |
| CCNC(=O)[C@H]1O[C@H](n2cnc3c(N)ncnc32)[C@@H](O)[C@@H]1O | inactive: 1.01 |
| COc1ccn(C)c(=O)c1C#N | inactive: 0.932 |
| CC(=O)OC(C)(C)/C=C/C(=O)C(C)(O)[C@H]1[C@H](O)C[C@@]2(C)[C@H]3CC=C4[C@@H](C[C@H](O)C(=O)C4(C)C)[C@]3(C)C(=O)C[C@]12C (some centres not stated) | inactive: 0.985 |
| CO[C@H]1[C@H]2CC[C@@H]1NC2 | inactive: 1.04 |
| N#Cc1c(Cl)c(Cl)c(Cl)c(C#N)c1Cl | inactive: 0.807 |
| CCCCSP(=O)(SCCCC)SCCCC | inactive: 0.969 |
| O=C(NCc1ccccn1)[C@]12CNC[C@H]1COC2 | inactive: 0.992 |
| COC1C(O)C(C)OC(OC2CCC3(C=O)C(CCC4C3CCC3(C)C(C5=CC(=O)OC5)CCC43O)C2)C1O (configuration not stated) | inactive: 1.03 |
| Cc1nc(N2CCN(C)CC2)ccc1N | inactive: 1.01 |
| C[C@H]1CN([C@@H](C)CO)C(=O)CCCn2nncc2CO[C@@H]1CN(C)C(=O)Oc1cccc2ccccc12 | inactive: 0.98 |
| NCCc1ccc(C(=O)c2ccccc2)cc1 | inactive: 0.942 |
| CN1C2CCC1CC(OC(=O)C(CO)c1ccccc1)C2.O=S(=O)(O)O (configuration not stated) | inactive: 1.2 |
| CC(=O)[O][PbH2][O]C(C)=O | inactive: 0.901 |
| CN(C)C(=O)CCC(=O)N1C[C@H]2C[C@@H]1CN2 | inactive: 0.989 |
| Cc1c[nH]cn1 | inactive: 1.05 |
| CC1(C)C(=O)C=CC2(C)C1CC(O)C1(C)C2CCC2(C)C(c3ccoc3)OC(=O)C3OC321 (configuration not stated) | inactive: 0.797 |
| C[C@H]1CN([C@@H](C)CO)C(=O)CCCn2cc(nn2)CO[C@@H]1CN(C)C(=O)Oc1cccc2ccccc12 | inactive: 1.01 |
| COC(=O)C[C@@H]1CC[C@@H]2NC[C@@H](O)COC[C@H]2O1 | inactive: 0.993 |
| CC12CCC(=O)C=C1C=CC1C2CCC2(C)C1CCC2(O)CCC(=O)[O-].[K+] (configuration not stated) | inactive: 0.953 |
| CC1(C)C(O)CC(O)C2(C)C1CC(=O)C1(C)C2CCC2(C)C(c3ccoc3)OC(=O)C3OC321 (configuration not stated) | inactive: 1 |
| COC(C)(C)CCC[C@H](C)C/C=C/C(C)=C/C(=O)OC(C)C | inactive: 1.13 |

| Compound | relative growth |
| --- | --- |
| CC(C)(O)C(Cl)(Cl)Cl | inactive: 1.04 |
| CN(C)[C@@H]1C(=O)[C@H](C(N)=O)C(=O)[C@@]2(O)C(=O)[C@@H]3C(=O)c4c(O)cccc4[C@@](C)(O)[C@H]3C[C@@H]12 | active: 0.182 |
| CC1(C)CCC(C)(C)c2cc(-c3csc(CC#N)n3)ccc21 | inactive: 1.02 |
| O=C(O)c1cc(Cl)ccc1Cl | inactive: 0.989 |
| CC(=CCn1c[n+](C)c2c(N)ncnc21)CCC1(C)C(C)CCC2(C)C(C)=CCCC21.[Cl-] (configuration not stated) | inactive: 1.07 |
| CNCCc1ccc(O)c(O)c1 | inactive: 0.991 |
| CCN1C(=O)/C(=C/c2ccc[nH]2)C(=O)NC1=S | inactive: 1.03 |
| Cc1cc(N(C)C)ccc1C[C@@H](C)N | inactive: 0.993 |
| CC12CCC3C(CC=C4CC(O)CCC43C)C1CCC2=O (configuration not stated) | inactive: 0.867 |
| COC(=O)[C@]1(Cc2ccccc2N=[N+]=[N-])N=C(c2ccc(OCCCO)cc2)O[C@@H]1c1ccccc1CN=[N+]=[N-] | inactive: 0.948 |
| CN1C[C@H](C(=O)N[C@]2(C)O[C@@]3(O)[C@@H]4CCCN4C(=O)[C@H](Cc4ccccc4)N3C2=O)C[C@@H]2c3cccc4[nH]cc(c34)C[C@H]21 | inactive: 0.947 |
| CC(=O)O[C@H]1C[C@@H](OC(C)=O)C(C)(C)[C@@H]2C[C@@H](OC(C)=O)[C@]3(C)[C@H](CC[C@@]4(C)[C@H](c5ccoc5)C[C@H]5O[C@@]534)[C@@]12C | inactive: 1.01 |
| CC(C)C[C@H]1C(=O)N2CCC[C@H]2[C@]2(O)O[C@](NC(=O)[C@@H]3C=C4c5cccc6[nH]c(Br)c(c56)C[C@H]4N(C)C3)(C(C)C)C(=O)N12 | inactive: 1.02 |
| COc1ccc(OC(=O)N(C)C[C@@H]2OCc3ccccc3-c3c(n(C)c4ccccc34)C(=O)N([C@@H](C)CO)C[C@H]2C)cc1 | inactive: 0.994 |
| [N-]=[N+]=NCc1ccccc1C[C@@]1(C(=O)N2CCCCC2)N=C(c2ccc(OCCCO)cc2)O[C@@H]1c1ccccc1N=[N+]=[N-] | inactive: 1.01 |
| C=C(C)[C@H]1CN[C@H](C(=O)O)[C@@H]1CC(=O)O | inactive: 0.864 |
| CCCCCCCCCc1ccc(O)cc1 | inactive: 1.02 |
| COc1ccc(C(=O)O[C@H]2CC[C@@]3(C)[C@@H]4CC[C@H]5[C@]6(O)C[C@H](O)[C@@]7(O)[C@@H](CN8C[C@@H](C)CC[C@H]8[C@@]7(C)O)[C@]6(O)C[C@@]53O[C@]24O)cc1OC | inactive: 1.02 |
| CN1[C@@H]2CC[C@H]1C[C@H](O)C2 | inactive: 1 |
| O=C(O)C[C@@H]1CC[C@H]2NC[C@H](O)COC[C@@H]2O1 | inactive: 0.996 |
| Cn1ncnc2c(=O)n(C)c(=O)nc1-2 | active: 0.0341 |
| CCCCCCCCCCCCCCCC[n+]1ccccc1.[Cl-] | active: 0.0713 |
| Cl.c1cncc(C2CCCCN2)c1 (configuration not stated) | inactive: 0.998 |
| COC(=O)[C@H]1O[C@@H]2C[C@H]3O[C@@H](n4cnc5c(N)ncnc54)[C@H](OC)[C@H]3O[C@@]2(O)[C@@H](O)[C@@H]1O | inactive: 0.952 |
| CC(CO)NC(=O)C1C=C2c3cccc4[nH]cc(c34)CC2N(C)C1.O=C(O)C=CC(=O)O (configuration not stated) | inactive: 1.1 |
| CCN1C[C@H]2CN(Cc3nccn3C)C[C@H]2C1=O | inactive: 0.995 |

Source: the supplement of paper PMC9446081
